Measured values as given in the RNAGym collection of RNA variant scans (doi:10.1093/nar/gkz1192).
The source gives no read counts; variants with many changes may rest on few reads.

B1: CPEB3 Ribozyme (parent)
chain: UAACAGGGGGCCACAGCAGAAGCGUUCACGUCGCAGCCCCUGUCAGAUUCUGGUGAAUCUGCGAAUUCUGCUGUAUAUCUC

Variants of: B1
Test: self-cleavage, relative activity (ratio to wild type); higher = more cleavage; in vitro, sequencing
Summary of the method: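 Relative activity compares each variant's cleaved/total read fraction with that of the unmutated ribozyme. To get these fractions, barcoded CPEB3 ribozyme libraries from rounds of error-prone PCR were transcribed with T7 RNA polymerase for 5 hours at 37°C and then given 15 min of DNase I treatment before EDTA was added. The RNAs were reverse transcribed with template switching and sequenced on Illumina, and DNA sequencing linked barcodes to variants. A minimum of 5 reads applied, and three batches were averaged.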

| Variant | self-cleavage |
| --- | --- |
| A21G A45U U58C U74A | 0.12 |
| A21G A45U U60A C62A | 0.12 |
| A21G A45U U60C U66C | 0.44 |
| A21G A45U U66C U80C | 0.21 |
| A21G A47G A56U | 0.48 |
| A21G A47G A64G U67C | 0.05 |
| A21G A47G A65G | 0.2 |
| A21G A47G U48C A57G U69C | 0 |
| A21G A47G U48C U67A U80C | 0.33 |
| A21G A47G U54A | 0.7 |
| A21G A47G U54C | 0.62 |
| A21G A47G U54C U58C | 0.76 |
| A21G A47G U60C | 0.37 |
| A21G A56G U72C | 0.47 |
| A21G A56U A65G A77G | 0.15 |
| A21G A57C G61U U69A | 0.17 |
| A21G A57G A64G U78A | 0.32 |
| A21G A57G A65G C79U | 0.14 |
| A21G A65G U72A U80A | 0.07 |
| A21G A65U U69C | 0.29 |
| A21G C23A A28U U31C C50U U60C A77G | 0.11 |
| A21G C23U C62A | 0.26 |
| A21G C23U C68U U78C | 0.38 |
| A21G C23U U26C U41A A64G | 0.1 |

| Variant | self-cleavage |
| --- | --- |
| A21G C27U C34A U67A | 0.05 |
| A21G C29A A45G A47G A57G A65G | 0.02 |
| A21G C29U C44A A56G A65G U80C | 0.16 |
| A21G C29U G33A G63U U72G | 0.08 |
| A21G C29U U31C U43A U60A U78C | 0.05 |
| A21G C32U A45U U72C | 0.15 |
| A21G C34G A56G G70A U76C | 0.17 |
| A21G C34G G42A U43A C62A U72A | 0.05 |
| A21G C37G U49C U72C A77U | 0.25 |
| A21G C37U U43G A56G A64G A77G | 0.37 |
| A21G C37U U51A | 0.24 |
| A21G C37U U67A | 0.46 |
| A21G C38A U41A U49A | 0.07 |
| A21G C38A U41C G42C U54A A77U | 0.11 |
| A21G C38U U48C A65U | 0.31 |
| A21G C39A C79U | 0.26 |
| A21G C39U G42A U43C G63U | 0.06 |
| A21G C40U A47G | 0.15 |
| A21G C40U U41A A45U U72C | 0.34 |
| A21G C40U U48A A64U | 0.11 |
| A21G C40U U60C | 0.06 |
| A21G C40U U76A | 0.17 |
| A21G C44A U67C | 0.19 |
| A21G C59A G70A | 0.25 |

| Variant | self-cleavage |
| --- | --- |
| A21G C59U A65G U72A | 0.09 |
| A21G C62G U72C A75G | 0.28 |
| A21G C62U U74C | 0.25 |
| A21G G22A U60A U76C | 0.13 |
| A21G G22A U66C U80A | 0.11 |
| A21G G22C G33C U43C U49C G55C | 0.13 |
| A21G G24A A28G A45G G70A A75U | 0.33 |
| A21G G24A C38U | 0.24 |
| A21G G24A G33A U43C | 0.07 |
| A21G G24A U41C U43C | 0.37 |
| A21G G24C U69A U74A | 0.07 |
| A21G G24U U25A A57G U72A | 0.07 |
| A21G G30A C38A U66C U72C | 0.22 |
| A21G G30A U31A U58C A65G | 0.07 |
| A21G G30A U41C A56G | 0.18 |
| A21G G30C A47G U60C A65G | 0.08 |
| A21G G30C U41A A45C A56G | 0.25 |
| A21G G33A A35G U66G U69C | 0.06 |
| A21G G33A C40U U41A U60C | 0.13 |
| A21G G33C A56U U72A | 0.09 |
| A21G G33C U41C U43C A64G | 0.06 |
| A21G G33C U49C U67C G70C | 0.12 |
| A21G G33C U49C U67C G70C U72C | 0.18 |
| A21G G36A U49C | 0.32 |

| Variant | self-cleavage |
| --- | --- |
| A21G G36A U51A A64G A65G | 0.08 |
| A21G G36C C44A A45G | 0.16 |
| A21G G36C U41C G46U U54C U60G | 0.04 |
| A21G G42A A56U A57G A75G | 0.05 |
| A21G G42A C59A A65G | 0.13 |
| A21G G52A U66C U69C | 0.79 |
| A21G G55A U80C | 0.47 |
| A21G G63A U78C | 0.4 |
| A21G U25A A28G C44U A47G C62U A65G | 0.1 |
| A21G U25A A35U C37U | 0.13 |
| A21G U25C A28G U43C U58A C59U U67C | 0.48 |
| A21G U25C A28U U76A U80C | 0.11 |
| A21G U25C A35C | 0.07 |
| A21G U25C A45G U80A | 0.16 |
| A21G U25C A56U U60A U66G | 0.08 |
| A21G U25C A64U U74C | 0.06 |
| A21G U25C C71U U76A | 0.07 |
| A21G U25C G30A U58C | 0.4 |
| A21G U25C G36A U72G | 0.06 |
| A21G U25C G42U A65U | 0.07 |
| A21G U25C U31A U43A G46C | 0.06 |
| A21G U25C U31A U80C | 0.11 |
| A21G U25C U31G U41C U66C | 0.25 |
| A21G U25C U41A U48A | 0.24 |

| Variant | self-cleavage |
| --- | --- |
| A21G U25C U41C C68A | 0.7 |
| A21G U25C U41C U49C | 0.07 |
| A21G U25C U41C U60C U80A | 0.27 |
| A21G U25C U43A U51G | 0.18 |
| A21G U25C U43C U48A C59A U72A U76C | 0.05 |
| A21G U25C U51C U54C | 0.25 |
| A21G U25C U51C U78C | 0.05 |
| A21G U25C U66C U80C | 0.13 |
| A21G U25C U67C U69A | 0.12 |
| A21G U25C U69A G70A | 0.13 |
| A21G U25G G42A U74C | 0.42 |
| A21G U25G U41A U74G | 0.35 |
| A21G U25G U41C U69A | 0.08 |
| A21G U26A A35G U41C A45G | 0.34 |
| A21G U26A A45U U67A | 0.35 |
| A21G U26A A47C U54C C81A | 0.15 |
| A21G U26A C32A U43A A65G U80C | 0.11 |
| A21G U26A C34G A35U A45C U80A | 0.04 |
| A21G U26A C38U A64G U72G | 0.18 |
| A21G U26A U43A A45G A75U | 0.31 |
| A21G U26A U60C U69A U80C | 0.25 |
| A21G U26A U69A | 0.19 |
| A21G U26C A28C U58A G63A A64G U80A | 0.02 |
| A21G U26C A28G A45G | 0.43 |

| Variant | self-cleavage |
| --- | --- |
| A21G U26C A47G | 0.29 |
| A21G U26C A56U C62G U74A | 0.1 |
| A21G U26C A64U U72G | 0.07 |
| A21G U26C C34U C39A C59G | 0.05 |
| A21G U26C U41A | 0.34 |
| A21G U26C U48C G61A | 0.11 |
| A21G U26C U49A U69A | 0.04 |
| A21G U26C U51C U69C U80A | 0.07 |
| A21G U31A A47U | 0.15 |
| A21G U31A C37U A65U | 0.18 |
| A21G U31A U41C | 0.33 |
| A21G U31A U41C A75U | 0.69 |
| A21G U31A U41C U49C U51C C59A U72A | 0.04 |
| A21G U31A U48C U66A U80A C81U | 0.09 |
| A21G U31C A35G U41C A64G | 0.33 |
| A21G U31C A45G A77G | 0.06 |
| A21G U31C A45U C59A U60A | 0.13 |
| A21G U31C A47G U60C | 0.2 |
| A21G U31C A57U | 0.17 |
| A21G U31C A64U | 0.08 |
| A21G U31C C34G U51A U69C | 0.06 |
| A21G U31C G36C A47G G53A A65U U66C | 0.03 |
| A21G U31C U41A A57G | 0.15 |
| A21G U31C U41A U54C | 0.13 |

| Variant | self-cleavage |
| --- | --- |
| A21G U31C U43C U60C A77G | 0.04 |
| A21G U31C U48C | 0.12 |
| A21G U31C U51A A64U | 0.14 |
| A21G U31C U60A | 0.35 |
| A21G U31G U43A U60A | 0.07 |
| A21G U41A A47U | 0.22 |
| A21G U41A A56U A57G U67C | 0.13 |
| A21G U41A C59U U60A | 0.1 |
| A21G U41A G53U U60A U67C U80C | 0.11 |
| A21G U41A U58C C59A | 0.1 |
| A21G U41A U67A U72C | 0.15 |
| A21G U41C A56U U66C | 0.82 |
| A21G U41C A77G U80C | 0.57 |
| A21G U41C U49A U60C | 0.15 |
| A21G U41C U49C | 0.51 |
| A21G U41C U51C C62A | 0.15 |
| A21G U41C U51C U78C | 0.56 |
| A21G U41C U67C | 0.21 |
| A21G U41C U78C | 0.45 |
| A21G U43A A45G A47G U51C | 0.45 |
| A21G U43A A57G U69A | 0.23 |
| A21G U43A U48C A57G U67C | 0.09 |
| A21G U43A U51A U67C U69C | 0.15 |
